This note sets out measurements from the RNAGym collection of RNA variant scans (doi:10.1073/pnas.2313332121).

B1: TPR 5TU (parent)
chain: GGAUCUUCUCGAUCUAACAAAAAAGACAAAUCUGCCACAAAGCUUGAGAGCAUCUUCGGAUGCAGAGGCGGCAGCCUUCGGUGGCGCGAUAGCGCCAACGUUCUCAACUAUGACACGCAAAACGCGUGCUCCGUUGAAUGGAGUUUAUCAUG

Variants at the floor of the assay are shown more often than the library holds them.

The data set covers variants of B1. Kind of data set: polymerase ribozyme fitness, log enrichment relative to wild type (log ratio); higher = more active; in vitro selection for triplet polymerase activity. The gist of the method: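 Mutant libraries of each subunit of a heterodimeric triplet polymerase ribozyme were built by PCR and transcribed. Each library went through one round of in vitro selection in triplicate: annealing with biotinylated primer, partner subunit and triplets, frozen incubation at −7 °C, gel excision of extended constructs, streptavidin-bead capture and RT-PCR. Input and output libraries were Illumina-sequenced; only genotypes with ≥10 input reads and ≥1 read per output were kept. Fitness is log2(genotype enrichment/wild-type enrichment), using inverse-variance-weighted replicate averages.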
Turning to U7C A40C G83A C149G, the “polymerase ribozyme fitness (log ratio)” value was no more than -4.2.

On to U7C A16C C35U C63U A121G G133C, for which the “polymerase ribozyme fitness (log ratio)” value was no more than -4.2.

With U7A A21G A22U G59U G86A A89U, the “polymerase ribozyme fitness (log ratio)” value was no more than -4.2.

For the variant U7G A17G A22G C54A C87U U130C, the “polymerase ribozyme fitness (log ratio)” value was no more than -4.2.

In the case of U7G A21G U78G G80C G92U U127G G136C, the “polymerase ribozyme fitness (log ratio)” value is no more than -4.2.

Regarding C8A A64C C72A C95U C116G A121C A138C, the “polymerase ribozyme fitness (log ratio)” value is no more than -4.2.

On to C8A A17C A26U U44G G83A G152U, for which the “polymerase ribozyme fitness (log ratio)” value was no more than -4.2.

U7G A39C G74A C93U C103A: the “polymerase ribozyme fitness (log ratio)” value is no more than -4.2.

Regarding C8A A73U G83A, the “polymerase ribozyme fitness (log ratio)” value is no more than -4.2.

As for U7A G71A C96G, the “polymerase ribozyme fitness (log ratio)” value is no more than -4.2.

For U7A A23G A29C A49C A73G C87G C118G C125A G128A, the “polymerase ribozyme fitness (log ratio)” value is no more than -4.2.

With U7A A28U A40U U55A C57A C76U U78G C96G C123G U151C, the “polymerase ribozyme fitness (log ratio)” value is no more than -4.2.

In the case of C8A A49G C76A C93A C103G C105A U127C, the “polymerase ribozyme fitness (log ratio)” value was no more than -4.2.

With U7G A41C G46U G100C A115U U135C G140C A147C, the “polymerase ribozyme fitness (log ratio)” value was no more than -4.2.

On to U7G A12C C51G A64C C123U C132G, for which the “polymerase ribozyme fitness (log ratio)” value is no more than -4.2.

Consider U7G A29U C54U U56A C79U G94U, for which the “polymerase ribozyme fitness (log ratio)” value is no more than -4.2.

U7C A16G A66C C79G C87A A110G G136A: the “polymerase ribozyme fitness (log ratio)” value is no more than -4.2.

Turning to U7G A40U A41U U90G G143A, the “polymerase ribozyme fitness (log ratio)” value is no more than -4.2.

With U7C U56C G68C G92C C132A, the “polymerase ribozyme fitness (log ratio)” value was no more than -4.2.

In the case of C8A A12U C54G C87G C129G, the “polymerase ribozyme fitness (log ratio)” value is no more than -4.2.

On to U7A A17G G65A C93U C108G G117C A150G, for which the “polymerase ribozyme fitness (log ratio)” value is no more than -4.2.

For the variant U7C G92C, the “polymerase ribozyme fitness (log ratio)” value was -2.73.

With U7C A19C A21G G71A G86A A121U G141U U146C, the “polymerase ribozyme fitness (log ratio)” value was no more than -4.2.

For the variant U7A A29U A49C U53A G84C U102C, the “polymerase ribozyme fitness (log ratio)” value was no more than -4.2.

Consider U7C C85U U101G C108A, for which the “polymerase ribozyme fitness (log ratio)” value was no more than -4.2.

As to U7C U31G A47U G71C C95U U127G, the “polymerase ribozyme fitness (log ratio)” value was no more than -4.2.

Turning to U7G U53A A147G, the “polymerase ribozyme fitness (log ratio)” value was no more than -4.2.

For the variant C8A A21C C32G G83A G92A G140C G152U, the “polymerase ribozyme fitness (log ratio)” value was no more than -4.2.

Take U7G U55A C85G A122G A138C: the “polymerase ribozyme fitness (log ratio)” value is no more than -4.2.

Turning to U6G U61A G71A G83A A107U C116A, the “polymerase ribozyme fitness (log ratio)” value was no more than -4.2.

Consider U7C C27G C96U, for which the “polymerase ribozyme fitness (log ratio)” value was no more than -4.2.

Turning to U7G A30C C32G C51U U144A, the “polymerase ribozyme fitness (log ratio)” value is no more than -4.2.

With U7G U15A A41U A66C G94U C99G G133U U148G, the “polymerase ribozyme fitness (log ratio)” value is no more than -4.2.

Take C8A C10G C18G A40U A47C G62C: the “polymerase ribozyme fitness (log ratio)” value is no more than -4.2.

As for U7A A22U G80A A120G C132U G136C, the “polymerase ribozyme fitness (log ratio)” value was no more than -4.2.

As to U7A A29C C85U C87U G143C A150G, the “polymerase ribozyme fitness (log ratio)” value is no more than -4.2.

With U7C C8G A30C C85G U134A, the “polymerase ribozyme fitness (log ratio)” value was no more than -4.2.

For U7G U61G G94C A98C U109C G141A A142C U146C, the “polymerase ribozyme fitness (log ratio)” value was no more than -4.2.

With U7C A17G A41G A73U C87A C125G, the “polymerase ribozyme fitness (log ratio)” value was no more than -4.2.

On to U7A A47C C93U C96A A106G G140A, for which the “polymerase ribozyme fitness (log ratio)” value is no more than -4.2.

Take U7C A20U C69G U78G G94A: the “polymerase ribozyme fitness (log ratio)” value is no more than -4.2.

On to U7C A23G A49U U56G G84U G86U A137U, for which the “polymerase ribozyme fitness (log ratio)” value was no more than -4.2.

Take U7C A24U G84U C87G A107C G112U G133U: the “polymerase ribozyme fitness (log ratio)” value was no more than -4.2.

Turning to U7A A49U A52C G83U A91U G136A, the “polymerase ribozyme fitness (log ratio)” value is no more than -4.2.

Turning to U7C A29C U53A C87G A147C, the “polymerase ribozyme fitness (log ratio)” value is no more than -4.2.

Turning to U7G A28G U31C A147U, the “polymerase ribozyme fitness (log ratio)” value was no more than -4.2.

As to U7G C87A A113U, the “polymerase ribozyme fitness (log ratio)” value is no more than -4.2.

For the variant C8A A37G A66U C75G, the “polymerase ribozyme fitness (log ratio)” value is no more than -4.2.

For the variant U7A A22G U77C G124U C132A, the “polymerase ribozyme fitness (log ratio)” value was no more than -4.2.

Turning to U7C C114U C149G, the “polymerase ribozyme fitness (log ratio)” value was no more than -4.2.

For the variant U7C C27G A39C A41U G42U G81C C87U C96G A98U U148A C149G, the “polymerase ribozyme fitness (log ratio)” value was no more than -4.2.

In the case of U7G C27U A41U G58A G80A C96A G126C A138U, the “polymerase ribozyme fitness (log ratio)” value was no more than -4.2.

As to C8A A41C A66U C69A U77C G83C G126U U130G G141C G152C, the “polymerase ribozyme fitness (log ratio)” value was no more than -4.2.

Turning to U6G U31C U55A C95U A98G G141C, the “polymerase ribozyme fitness (log ratio)” value was -1.61.

For U7G A21C C35A A47C C99A C123A, the “polymerase ribozyme fitness (log ratio)” value is no more than -4.2.

Consider U7A U9G A37C G50C C99G C116U C125G A138C U148G, for which the “polymerase ribozyme fitness (log ratio)” value was no more than -4.2.

As to U7G A41U C43U U82G G92U U146A, the “polymerase ribozyme fitness (log ratio)” value is no more than -4.2.

On to U7C G42A U44A A52C U53G U82G G86U A98C C132G, for which the “polymerase ribozyme fitness (log ratio)” value was no more than -4.2.

On to U7A A28U G46C G50A C95G C103G C129A U144C, for which the “polymerase ribozyme fitness (log ratio)” value is no more than -4.2.

Turning to U7G C57U C85G G86U, the “polymerase ribozyme fitness (log ratio)” value was no more than -4.2.

U7C C14G G58C C85A U102G C116G A119G: the “polymerase ribozyme fitness (log ratio)” value was no more than -4.2.

Turning to U7C G42U C43G U77G C85U C103A G141A C149A, the “polymerase ribozyme fitness (log ratio)” value was no more than -4.2.

On to U7A U9G A19U A47G G58A G92C G136A U148G, for which the “polymerase ribozyme fitness (log ratio)” value was no more than -4.2.

On to U7G C8U U56C G59A A64C G65C G71A C95U C99A G100C, for which the “polymerase ribozyme fitness (log ratio)” value was no more than -4.2.

U7C G25U U31C G62C C75U G117U A122G: the “polymerase ribozyme fitness (log ratio)” value was no more than -4.2.

Take U7G A49C G59C C85A C105G: the “polymerase ribozyme fitness (log ratio)” value was no more than -4.2.

Consider U7G A23G C32A A115G, for which the “polymerase ribozyme fitness (log ratio)” value is no more than -4.2.

For the variant C8A A17U G67U A73G U78A A107U, the “polymerase ribozyme fitness (log ratio)” value is no more than -4.2.

Take C8A A26G G59U A89G C93G C95U C108U C132A: the “polymerase ribozyme fitness (log ratio)” value was no more than -4.2.

With U7A U111G, the “polymerase ribozyme fitness (log ratio)” value was -4.19.

In the case of U7A A22U A30U C51U C85G, the “polymerase ribozyme fitness (log ratio)” value is no more than -4.2.

In the case of U7A A47C A52U C85A A98U G126A, the “polymerase ribozyme fitness (log ratio)” value was no more than -4.2.

With U7A A20G G50C A73G, the “polymerase ribozyme fitness (log ratio)” value was no more than -4.2.

With C8A A21C A49G G59A C63G C85G C105G A147C, the “polymerase ribozyme fitness (log ratio)” value is no more than -4.2.

On to U7C U9C A20U C75G C93U A106C C114A, for which the “polymerase ribozyme fitness (log ratio)” value is no more than -4.2.

U7A U31G A49G U55A G70C G86A: the “polymerase ribozyme fitness (log ratio)” value is no more than -4.2.

As for U7A A60C G74A C85A G86U A142U, the “polymerase ribozyme fitness (log ratio)” value is no more than -4.2.

In the case of U7C U148G, the “polymerase ribozyme fitness (log ratio)” value is no more than -4.2.

For the variant U7C A21U A28U C51A C57A A97U, the “polymerase ribozyme fitness (log ratio)” value is no more than -4.2.

As to C8A C14A A30U A49C A52G A106C, the “polymerase ribozyme fitness (log ratio)” value is no more than -4.2.

For U7A G86A A89C G94A U151G, the “polymerase ribozyme fitness (log ratio)” value was no more than -4.2.

In the case of U7G A26G A28C A52G G88C A107U A122G G143U A147U U151C, the “polymerase ribozyme fitness (log ratio)” value is no more than -4.2.

As for U7G C10G C35A G48A, the “polymerase ribozyme fitness (log ratio)” value is no more than -4.2.

Turning to U7G A26C G92U A97U, the “polymerase ribozyme fitness (log ratio)” value is no more than -4.2.
